# Experimental data: PubChem BioAssay AID759 (NMMLSC, 2007)
# The campaign covered roughly 190,000 compounds. About 270 (0.14%) were called active. This list was built around the results that the source calls inconclusive (neither active nor inactive); the mix of calls is not that of the screen.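 The calls were made as follows: active = GTP binding activity at least 20% away from the 100% baseline, either lowered as inhibitor or raised as activator; inconclusive = flagged as likely green fluorescent, judged across all proteins in the well; inactive = the rest.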
# Molecular target: GTPase HRas (Homo sapiens) (UniProt P01112)
# Sequence of UniProt P01112 (P01112 whole entry, looked up): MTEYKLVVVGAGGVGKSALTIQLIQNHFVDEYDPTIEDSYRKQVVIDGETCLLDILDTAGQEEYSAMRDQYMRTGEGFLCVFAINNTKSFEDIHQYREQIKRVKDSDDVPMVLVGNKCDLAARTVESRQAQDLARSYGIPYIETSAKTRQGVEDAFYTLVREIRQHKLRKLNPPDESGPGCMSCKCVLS
# Test: HRas wt fluorescent GTP binding changes, either direction – biochemical, wildtype, bead-based flow cytometry, multiplex, primary screen (AID 759);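 also: 0% = unlabeled GTP competition control and 100% = no-compound control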
# Details: GST-Ras wt beads, Bodipy-FL-GTP binding, at 10 µM, actives lie on both sides
row,SMILES,GTP binding activity
1,O=C(CCN1C(=O)C2CCCCC2C1=O)Nc1ccc(F)c(F)c1F (configuration not stated),inactive: 98%
2,COC(=O)c1ccc(CSc2nnc(-c3ccncc3)n2Cc2ccccc2)o1,inconclusive: 102%
3,Cc1cc(=O)oc2cc(OCC(=O)OCC(=O)Nc3c(C)n(C)n(-c4ccccc4)c3=O)ccc12,inactive: 98%
4,CC(OC(=O)c1nsc(Cl)c1Cl)C(=O)NCc1ccc2c(c1)OCO2 (configuration not stated),inconclusive: 88%
5,CC1(C)COC(/C=C/c2ccc([N+](=O)[O-])cc2)=N1,inconclusive: 103%
6,CC1CCCCC1NC(=O)COC(=O)Cc1ccc(Br)cc1 (configuration not stated),inconclusive: 97%
7,Cc1ccc(-c2cccc(CN3CCN(C4CCN(C(C)C)CC4)C(CCO)C3)c2)o1 (configuration not stated),inactive: 96%
8,COC(=O)c1ccc(NC(=S)NC2c3ccccc3CC2O)cc1 (configuration not stated),inactive: 101%
9,CC1CCN(CCOc2ccc(OCc3ccccc3)cc2)CC1,inactive: 100%
10,C/C(=N\NC(=O)c1cccc(C)c1)c1ccc(N2CCOCC2)cc1,inconclusive: 96%
11,COc1cc(S(=O)(=O)Nc2ccc(Br)cc2)ccc1N,inactive: 97%
12,CC(=O)c1ccc(NC(=O)CSc2nnc(NC(=O)CN3CCOCC3)s2)cc1,inconclusive: 102%
13,O=C(Nc1ccc(Cl)cc1C(F)(F)F)c1ccccc1,inactive: 98%
14,COCCCn1c(SCc2cc(=O)[nH]c3ccccc23)nnc1-c1ccco1,inconclusive: 97%
15,CN(Cc1cnn(C)c1)S(=O)(=O)c1cccc([N+](=O)[O-])c1,inactive: 87%
16,c1ccc(C2CC(c3ccccc3)n3c(nc4ccccc43)N2)cc1 (configuration not stated),inactive: 97%
17,COCc1cc(C)nc(OCC(=O)N/N=C/c2ccc(O)cc2O)c1C#N,inconclusive: 89%
18,Cc1cccc(-c2noc(CCC(=O)NCC3CCCO3)n2)c1 (configuration not stated),inactive: 99%
19,O=C(CNC(=O)C1CCCCC1)OCC(=O)c1ccc(Cl)s1,inconclusive: 90%
20,COc1cccc(C(=O)CN(C(=O)c2ccc(Cl)cc2Cl)N2C(=O)c3ccccc3C2=O)c1,inactive: 102%
21,CCCCCCSc1nc(O)c(C2OC(=O)c3c2ccc(OC)c3OC)c(=O)n1-c1ccccc1 (configuration not stated),inactive: 101%
22,O=C1CC(Cc2ccccc2)C(=O)N1CCCn1ccnc1 (configuration not stated),inconclusive: 101%
23,Cc1cc(NC(=O)c2ccccc2)nc2c1c(=O)oc1ccccc12,inconclusive: 84%

row,SMILES,GTP binding activity
1,CC(C(=O)NCC1CCCCC1)N1CCc2ccccc2C1 (configuration not stated),inconclusive: 92%
2,CC(C)C(c1nnnn1Cc1cccs1)N1CCN(C(=O)c2ccco2)CC1 (configuration not stated),inactive: 100%
3,CSc1nsc(SCC(=O)N2CCCCC2)n1,inactive: 99%
4,N#Cc1c(N)n(CCCN2CCOCC2)c2nc3ccccc3nc12,inconclusive: 96%
5,O=S(=O)(Nc1cc(Sc2cccc3cccnc23)c(O)c2ccccc12)c1ccccc1,inconclusive: 92%
6,N#C/C(=C\c1ccncc1)c1nc2ccccc2c(=O)[nH]1,inconclusive: 92%
7,CCOC(=O)N1CCN(C(=O)CSc2ccc3nnc(CCNC(=O)c4ccc(OC)cc4)n3n2)CC1,inactive: 98%
8,CN(C)c1nnnn1-c1ccccc1Oc1ncc(C(F)(F)F)cc1Cl,inconclusive: 92%
9,COc1ccc(/C=C2/SC(=O)N(CC(=O)Nc3cc(C)on3)C2=O)cc1OC,inconclusive: 104%
10,Cc1ccc(CSc2nnc(-c3ccccc3N)c(=O)[nH]2)cc1,inactive: 98%
11,CN(C)c1ccc(NC(=O)CN2C(=O)CC(c3ccccc3)=Nc3ccccc32)cc1,inconclusive: 91%
12,N#Cc1nc(COc2ccccc2Cl)oc1NCc1ccc(F)cc1,inconclusive: 111%
13,COc1ccc(C2CC(C(F)(F)F)n3nc(C(=O)NCc4cn(C)nc4C)c(Cl)c3N2)cc1 (configuration not stated),inconclusive: 103%
14,Cc1ccc(S(=O)(=O)CC(CN2CCCCC2)N2CCCCC2)cc1 (configuration not stated),inconclusive: 95%
15,Cc1ccc(OCC(=O)Nc2ccc3c(c2)CCC3)c([N+](=O)[O-])n1,inconclusive: 93%
16,CCC(=O)Nc1nc(-c2ccccc2)ns1,inconclusive: 104%
17,O=C(O)CC/C(=C\c1cccc(NC(=O)c2ccccc2Cl)c1)c1nc2ccccc2s1,inactive: 92%
18,CCOc1ccccc1/C=N/NC(=O)c1cccc(S(=O)(=O)N(CC)CC)c1,inconclusive: 94%
19,Cc1ccc(-c2csc(NC(=O)CCNC(=O)c3ccccc3Cl)n2)cc1,inactive: 98%
20,Cn1c(=O)n(C)c2cc([N+](=O)[O-])c(N3CCN(S(=O)(=O)c4ccc5ccccc5c4)CC3)cc21,inconclusive: 93%
21,Cc1cc(C)c(O)c(-c2cc(C(=O)Nc3ccc(S(=O)(=O)N4CCOCC4)cc3)[nH]n2)c1,inconclusive: 91%
22,O=C(/C=C/c1ccc(N2CCC(c3ccccc3)=N2)cc1)c1ccccc1,inconclusive: 377%
23,Cc1cc(C)n2nc(SC(C)C(=O)Nc3ccc(Cl)cn3)nc2n1 (configuration not stated),inactive: 97%

row,SMILES,GTP binding activity
1,NS(=O)(=O)c1ccc(CCNC(=O)CN2CCC(Cc3ccccc3)CC2)cc1,inconclusive: 92%
2,CC(NC(=O)c1cccnc1)C(c1cccs1)N1CCOCC1 (configuration not stated),inconclusive: 106%
3,COC(=O)c1ccc(NC(=O)CSc2nncn2C)cc1,inconclusive: 99%
4,CN(C)C(=O)C1CCC(=O)N1Cc1cccs1 (configuration not stated),inactive: 99%
5,CCOC(=O)c1ccc(Nc2ccc(-c3ccc(OC)c(OC)c3)nn2)cc1,inconclusive: 103%
6,COc1ccc(/C=N/NC(=O)c2ccncc2)cc1Cn1nc([N+](=O)[O-])c(Br)c1C,active: 74%
7,COc1ccc(N2CCN(c3nc(=S)n(-c4ccccc4)c(C)c3C(C)=O)CC2)cc1,inconclusive: 103%
8,CC(C)CCNC(=O)COC(=O)c1cc(Br)c(Br)s1,inconclusive: 93%
9,Cc1ccc(-c2nnc(-c3ccccc3S(=O)(=O)Cc3ccc(Cl)cc3)o2)cc1,inconclusive: 107%
10,COc1ccc(Cc2c[nH]c(=O)[nH]c2=O)cc1,inconclusive: 95%
11,Nc1nnc(SCc2nnc(-c3ccccc3)o2)s1,inactive: 98%
12,Cc1sc(NC(=O)c2ccco2)c(C(c2ccncc2)N2CCOCC2)c1C (configuration not stated),inconclusive: 105%
13,CN(CCc1cnn(C)c1)Cc1cn[nH]c1-c1ccc(-c2ccccc2)cc1,inactive: 97%
14,COc1ccc(/C=N\NC(=O)c2sc(N)nc2C)cc1OC,inconclusive: 87%
15,CC1CCCN(C(=S)NC2CCCC2)C1 (configuration not stated),inactive: 94%
16,Cc1cc(C)cc(Nc2nc3c([nH]2)c(=O)n(C)c(=O)n3C)c1,inconclusive: 97%
17,CCc1ccc(OS(=O)(=O)c2cn(C)c(=O)n(C)c2=O)cc1,inactive: 96%
18,O=C(/C=C/c1ccccc1)Nc1ccc(C(=O)N2CCCCC2)cc1,inactive: 95%
19,COc1ccc(CC(=O)NCc2cccs2)cc1,inconclusive: 103%
20,COc1ccc(Cn2c(-c3ccc(C)cc3)nc3c(c(=O)c4ccccc4n3C)c2=O)cc1,inactive: 98%
21,COc1ccc(OCCSc2nc3nc(C)cc(C)n3n2)cc1,inconclusive: 78%
22,COc1cccc(CNCC(O)(c2ccc(Cl)cc2)c2ccc(Cl)cc2)c1,inconclusive: 106%
23,C/C(N)=C(/C#N)C(=O)CSc1nnnn1-c1ccc(C)cc1,inconclusive: 104%

row,SMILES,GTP binding activity
1,COc1ccc(C2C(C(C)=O)=C(O)C(=O)N2c2nccs2)cc1 (configuration not stated),inconclusive: 93%
2,COc1ccc(S(=O)(=O)N2CCC(C(=O)NCC3CCCO3)CC2)cc1 (configuration not stated),inconclusive: 102%
3,NC1=NC(=O)C2(COC(c3cccnc3)OC2)S1 (configuration not stated),inconclusive: 93%
4,COc1ccc(CCn2c(N)c(C#N)c3nc4ccccc4nc32)cc1OC,inconclusive: 88%
5,Cc1cc(C#N)c(C)n1-c1cc(C(F)(F)F)ccc1N1CCOCC1,inconclusive: 106%
6,CCCCNC(=O)C(Sc1ccccc1)c1ccccc1 (configuration not stated),inactive: 105%
7,Nc1c(S(=O)(=O)c2ccccc2)c2nc3ccccc3nc2n1C1CC1,inactive: 85%
8,COc1ccc(S(=O)(=O)N(Cc2cc3ccc(OC)cc3[nH]c2=O)CC2COCCO2)cc1 (configuration not stated),inconclusive: 110%
9,CCOc1ccc(CCNC(=O)c2cc3ccccn3n2)cc1OCC,inactive: 97%
10,CCOC(=O)CSc1nc(NCc2ccco2)c2ccccc2n1,inconclusive: 102%
11,COc1ccc(C2Nc3ccccc3C(=O)N2NS(=O)(=O)c2ccccc2)cc1 (configuration not stated),inactive: 97%
12,COc1cc2c(cc1OC)CN(CC(=O)Nc1ccc(Cl)c(S(=O)(=O)N(C)C)c1)CC2,inactive: 96%
13,CNC(=S)N/N=C/c1cn(Cc2c(F)cccc2Cl)c2ccccc12,inconclusive: 101%
14,O=Cc1cc(N=Nc2cccc(C(=O)O)c2)ccc1O,inconclusive: 87%
15,CS(=O)(=O)N1CCC(C(=O)Nc2ccc(Cl)c(Cl)c2)CC1,inconclusive: 94%
16,Cc1nc(C)c(-c2csc(Nc3cccnc3)n2)s1,inconclusive: 91%
17,Cc1cccc(NC2=NCC(=O)N2Cc2ccccc2)c1,inconclusive: 104%
18,CC(Oc1ccccc1)C(=O)Nc1cccc(-c2nc3ccccc3[nH]2)c1 (configuration not stated),inconclusive: 93%
19,CS(=O)(=O)N(Cc1ccc(Cl)cc1)c1ccc(C(=O)NCCC2=CCCCC2)cc1,inconclusive: 103%
20,COc1cc([N+](=O)[O-])cc(/C=N/N(CCC#N)C(C)=O)c1O,inactive: 97%
21,Cc1nn2c(COc3ccc(NC(=O)c4ccccc4Cl)cc3)nnc2c2ccccc12,inactive: 93%
22,CCOC(=O)c1ccc(NC(=O)c2cc3ccccc3o2)cc1,inconclusive: 100%
23,COc1ccc(N2CCN(C(=O)c3cccnc3SCc3cccc(Br)c3)CC2)cc1,inactive: 98%
